In US20220389066A1, “POLYPEPTIDES” (Affibody AB, priority 2019, published 2022):

Set-up: species or system C57BL/6J mice
Details: mouse, in vivo, 1.6 mg/kg
Procedure: PK study in mouse: Six C57BL/6J mice (Charles River) were divided into two groups for i.p. or i.v. administration. ZZA4263 was prepared in PBS and administered as a bolus injection through tail vein or i.p. at 1.6 mg/kg (83 nmol/kg) at a slow and steady rate. The dosing volume administered was 5 and 20 ml/kg for i.v. and i.p. respectively. Serum samples were collected from tail vein of each mouse at time points 0 (predose), 5 min, 8 h, 48 h and 120 h. To prepare sera, the blood samples were left at RT for at least 30 min before centrifugation at 2000×g for 5 min. Sera were extracted and transferred into pre-labelled test tubes and stored at −20° C.
Quantification by ELISA: 96-well half area plates were coated with mouse anti-Z monoclonal antibody (2 μg/ml) in PBS (50 μl/well) and incubated overnight at 4° C. Plates were washed in PBST and blocked with PBSC for 1.5 h. ZZA4263 standard and serum samples were added to the plates (50 μl/well) and incubated for 1.5 h at RT. The ZZA4263 standard was diluted at 10 different concentrations between 1.3-50 μM in PBSC+1% mouse or rat serum pool. Serum samples were diluted 100× (minimal required dilution) in PBSC and titrated in 1:2 steps in PBSC+1% mouse or rat serum pool. […] The absorbance at 450 nm was measured in a 96-well plate reader (Victor3). […]

B1: ZZA4263: heterodimer ZH27/ZH32, format Z(boxB)-L2-Z(boxA)-ABD (protein)
chain: AEAKYAKEAWLAEQEIWQLPNLTEAQFQAFILKLIDDPSQSSELLSEAKKLNDSQAPKGAPGGGGSTSAEAKYAKEDWDAFWEIIWLPNLTDAQQRAFIYKLEDDPSQSSELLSEAKKLNDSQAPKASGSLAEAKEAANAELDSYGVSDFYKRLIDKAKTVEGVEALKDAILAALP
modifications: Engineered HMGB1 binding polypeptide
notes: heterodimer ZH27/ZH32, format Z(boxB)-L2-Z(boxA)-ABD
  bioavailability after i.p. administration: 67 % of i.v. administration
  terminal half-life, i.p. compared with i.v.: appears to be the same
